# Test results taken from PubChem BioAssay AID894 (National Center for Advancing Translational Sciences (NCATS), 2007).
# The whole screen tested about 150,000 compounds, of which about 6,500 (4.3%) were called active. This list was built around the results that the source calls inconclusive (neither active nor inactive); the mix of calls is not that of the screen. Calls come from the whole dose curve; as a rule, active = well fitted inhibition curve with a large enough effect (not every such curve was filed as active); inconclusive = small, poorly fitted or top-dose-only effect, or another doubt; inactive = no such curve, though single readings can be large or run the other way. No potency is given beside an inconclusive call; the fits are too rough.
# Molecular target: 15-hydroxyprostaglandin dehydrogenase [NAD(+)] (Homo sapiens) (UniProt P15428)
# Assay: qHTS Assay for Inhibitors of HPGD (15-Hydroxyprostaglandin Dehydrogenase)
# Details: purified HPGD, NADH fluorescence kinetic, PGE2 substrate; activity change, negative = inhibition: active compounds read low
# Method in brief: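 NADH formation kinetics: reaction with 30 uM PGE2 and 1 mM NAD+ (final), 20 nM enzyme, Tris-HCl pH 8 with Tween 20, after 15 min compound preincubation at room temperature. Fluorescence change, last versus first of five reads.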
# % is set by controls: 0 for no effect and ±100 for the full control effect; potency is the fitted concentration of half-maximal effect; tags give direction and shape of the fitted curve.
# Sequence of UniProt P15428 (P15428 whole entry, looked up): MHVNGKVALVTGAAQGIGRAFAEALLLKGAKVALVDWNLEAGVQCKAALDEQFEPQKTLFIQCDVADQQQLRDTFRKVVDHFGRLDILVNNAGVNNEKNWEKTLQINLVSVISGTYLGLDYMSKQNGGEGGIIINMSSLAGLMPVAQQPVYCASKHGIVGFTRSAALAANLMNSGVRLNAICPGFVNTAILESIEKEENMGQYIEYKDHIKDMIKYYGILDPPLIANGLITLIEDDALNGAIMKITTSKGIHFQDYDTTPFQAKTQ
SMILES,Potency,"activity change, negative = inhibition"
C(=N\n1cncn1)/c1ccc(N2CCOCC2)cc1,"inconclusive [inhibitor, partial curve]",–
C/C(CC(=O)Nc1ccccc1-c1ccccc1)=N\NC(=O)COc1ccc(C)cc1Br,–,inactive: -3.39%
COCCCn1cnc2oc3nc4ccccc4nc3c2c1=O,"inconclusive [inhibitor, partial curve]",–
Cc1ccc2oc3c(c(=O)c2c1)C(c1cccs1)N(CCCN(C)C)C3=O (centres undefined),"inconclusive [inhibitor, partial curve]",–
O=C(Cn1cc(/C=N/NC(=O)c2cccc(C(F)(F)F)c2)c2ccccc21)Nc1ccc(F)cc1,"inconclusive [inhibitor, partial curve]",–
O=C(N/N=C/c1ccc(Cl)cc1Cl)C1CCN(c2ncc(C(F)(F)F)cc2Cl)CC1,–,inactive: -22.4%
Cc1ccc(N2C(=O)C3CC(c4ccccc4)=C4C5C=CC(C6C(=O)N(c7ccc(C)cc7)C(=O)C56)C4C3C2=O)cc1 (centres undefined),–,inactive: -7.08%
O=[N+]([O-])c1cc(C=Nc2ccc3ccccc3c2)ccc1Br,"inconclusive [inhibitor, partial curve]",–
CCOC(=O)c1cc(-c2ccccc2)n(CCC(=O)O)c1C,–,inactive: -12.2%
CCC(=O)NCCn1c(C)cc2ccccc21,–,inactive: -0.971%
Clc1ccc(-n2ncc3c(N4CCCC4)ncnc32)cc1,"inconclusive [inhibitor, single point]",–
CCc1ccc(NC(=O)c2cc(-c3ccc(OC)cc3)on2)cc1,"inconclusive [inhibitor, partial curve]",–
CC1CCCN(C(=O)CCCn2c(=S)[nH]c3ccccc3c2=O)C1 (centres undefined),active: 7.94 µM,–
Cc1onc(-c2ccccc2Cl)c1C(=O)OCn1nnc2ccccc2c1=O,active: 31.6 µM,–
Cc1ccc2cc3cc(C(=O)N4CCCCC4C)oc3nc2c1 (centres undefined),active: 15.8 µM,–
O=C1CN(C(=O)COC(=O)c2ccccc2NCc2ccco2)c2ccccc2N1,"inconclusive [inhibitor, partial curve]",–
Cc1cccc(C(=O)NCc2nnc3c4ccccc4c(-c4ccccc4)nn23)c1,"inconclusive [inhibitor, partial curve]",–
Cc1cccc(C(=O)NC(=S)Nc2ccc(Cc3ccncc3)cc2)c1,"inconclusive [inhibitor, partial curve]",–
COc1ccccc1-c1nnc(NC(=O)c2ccc3ncsc3c2)o1,–,inactive: -16.3%
CCCC12CN3CCN(CC(C3)/C1=N\NC(=O)c1ccccc1N)C2,"inconclusive [inhibitor, partial curve]",–
Nc1cc(Cl)ccc1C(=O)OCC(=O)NC1CCS(=O)(=O)C1 (centres undefined),"inconclusive [inhibitor, partial curve]",–
CC(=O)Nc1ccc(NC(=O)c2sc3nc4c(c(-c5ccc(C)cc5)c3c2N)CCC4)cc1,"inconclusive [inhibitor, partial curve]",–
OC1CCN(c2c3c(nc4cc(-c5cccc(F)c5)nn24)CCCC3)CC1,"inconclusive [inhibitor, partial curve]",–

SMILES,Potency,"activity change, negative = inhibition"
CCc1nnc(SCC(=O)NC2CCCCC2)nc1CC,"inconclusive [inhibitor, partial curve]",–
Cc1cc(C)n2nc(SCc3nnc(SCc4ccccc4C)s3)nc2n1,active: 25.1 µM,–
CCCCc1nnc(NC(=O)C(C)Sc2nc(C)cc(=O)[nH]2)s1 (centres undefined),"inconclusive [inhibitor, single point]",–
COc1ccc(CCNS(=O)(=O)c2cccc(C(=O)O)c2)cc1OC,–,inactive: -8.88%
COC(=O)C1=C(C)N(C)C(=O)NC1c1ccc(C)cc1 (centres undefined),–,inactive: -6.89%
O=C(/C=C/C(=O)Oc1ccccc1C(=O)O)Oc1ccccc1C(=O)O,"inconclusive [inhibitor, partial curve]",–
CCCn1cnc2c(c1=O)c1nc3ccccc3nc1n2Cc1ccccc1OC,"inconclusive [inhibitor, single point]",–
CCn1c2ccccc2c2cc(NC(=O)c3cccc(OC)c3OC)ccc21,"inconclusive [inhibitor, single point]",–
CC(C)(C)C1=Nn2c(nnc2C2CCCCC2)SC1,–,inactive: -21.8%
O=C(c1csnn1)N1CCC2(CCCN(c3ccncc3)C2)CC1,–,inactive: -12.1%
COC(=O)CCCCCc1ccc(C(C)=O)s1,"inconclusive [inhibitor, partial curve]",–
N#Cc1nc(-c2cccc3ccccc23)oc1NCCN1CCCCC1,"inconclusive [inhibitor, partial curve]",–
O=C(Nc1cccc(-c2cn3cccnc3n2)c1)c1ccc(Br)o1,"inconclusive [inhibitor, partial curve]",–
Cc1cn2nc(N)c3ccccc3c2n1,"inconclusive [inhibitor, partial curve]",–
O=C1CSC(c2cn(-c3ccccc3)nc2-c2ccccc2)N1Cc1ccco1 (centres undefined),"inconclusive [inhibitor, partial curve]",–
CCOC(=O)c1c(NC(=O)Cn2nc(C(F)F)cc2C(F)F)sc(C)c1C,"inconclusive [inhibitor, partial curve]",–
O=c1[nH]c2ccc(Cl)cc2c(-c2ccccc2)c1SC(=S)N1CCOCC1,active: 20 µM,–
CCC(=O)Nc1ccc2nc(C)n(CC(=O)Nc3ccccc3)c(=O)c2c1,"inconclusive [inhibitor, partial curve]",–
CCOC(=O)/C=C1\CC(=O)Nc2nonc2N1,active: 31.6 µM,–
O=C(N/N=C/c1cccc(O)c1)c1ccc(COc2ccccc2Br)cc1,"inconclusive [inhibitor, partial curve]",–
Cc1nc(SCn2nnc3ccccc3c2=O)nc(C)c1C,active: 14.1 µM,–
COc1nc(-c2ccc(C)cc2)ccc1-c1noc(-c2ccco2)n1,"inconclusive [inhibitor, partial curve]",–
CCn1c(=O)c2cc(C(=O)N3CCN(C)CC3)sc2c2ccccc21,"inconclusive [inhibitor, partial curve]",–

SMILES,Potency,"activity change, negative = inhibition"
CCCC(=O)Nc1ccc(-c2nc3cc(C)c(C)cc3o2)cc1,"inconclusive [inhibitor, partial curve]",–
Cc1cccc(NS(=O)(=O)c2ccc(Oc3ccccc3)cc2)n1,"inconclusive [inhibitor, partial curve]",–
CCOc1cccc(=O)c2c(C)n(Cc3ccco3)c(C)c12,"inconclusive [inhibitor, partial curve]",–
CCOC(=O)CSc1nnc(-c2ccco2)n1-c1ccccc1,active: 31.6 µM,–
COCCSc1ccccc1C(=O)Nc1cccnc1,"inconclusive [inhibitor, single point]",–
COC(=O)c1cn(NC(=O)/C=C/c2cccc(OC)c2OC)c(=O)c2ccccc12,"inconclusive [inhibitor, partial curve]",–
Cc1ccc(-c2nn3c(C)nnc3s2)cc1NC(=O)c1ccc(-c2ccc(Cl)cc2Cl)o1,"inconclusive [inhibitor, partial curve]",–
CCC(C)(C(=O)NC1CCCC1)N(Cc1cccs1)C(=O)Cc1cccs1 (centres undefined),–,inactive: 4.3%
CC1(C)CC(=O)C(C=NCCCO)=C(O)C1,–,inactive: -3.85%
CCCn1c(=S)[nH]c2cc(C(=O)N3CCc4ccccc43)ccc2c1=O,–,inactive: -10.8%
CC1CCN(c2nc3ccc(C(=O)N4CCN(Cc5ccc6c(c5)OCO6)CC4)cc3s2)CC1,active: 17.8 µM,–
COc1cccc(N2CCN(CC(=O)c3c[nH]c4ccc(OC)cc34)CC2C)c1 (centres undefined),"inconclusive [inhibitor, partial curve]",–
COc1ccc(-c2noc(-c3ccccc3-c3ccccc3)n2)cc1,–,inactive: -4.5%
COc1cc(SC#N)ccc1N=Cc1c(C)[nH]n(-c2ccc(C)cc2C)c1=O,active: 8.91 µM,–
COc1cccc(N(C(=O)c2cccs2)c2nc3ccccc3s2)c1,"inconclusive [inhibitor, single point]",–
COc1ccc2[nH]c(=O)c(CN(Cc3ccc(C)cc3)Cc3nnnn3CC3CCCO3)cc2c1 (centres undefined),"inconclusive [inhibitor, single point]",–
CC1=C(C#N)C(c2cccnc2)C2=C(CCCC2=O)N1 (centres undefined),"inconclusive [inhibitor, partial curve]",–
COC(=O)c1[nH]c2ccc(C)cc2c1NC(=O)CN1CCc2cc(OC)c(OC)cc2C1,"inconclusive [inhibitor, partial curve]",–
Cc1nc2ccccn2c1C(=O)NN=C1C2CC3CC(C2)CC1C3,–,inactive: -1.26%
COc1cc2[nH]c(=O)n(CCC(=O)NC3CCN(Cc4ccccc4)CC3)c(=O)c2cc1OC,"inconclusive [inhibitor, partial curve]",–
CCOc1ccc(C2C(C(=O)OC)=CN(CCOC)C=C2C(=O)OC)cc1,"inconclusive [inhibitor, partial curve]",–
COC(=O)c1c(NC(=O)c2cccs2)sc2c1CCC(C)C2 (centres undefined),"inconclusive [inhibitor, partial curve]",–
Cc1cc(C)n(-c2ccc(C(=O)OCC(=O)NCc3ccc(Cl)cc3)cc2)n1,"inconclusive [inhibitor, partial curve, poor fit]",–
